# Where “and” joins values, the source holds several entries; their conditions need not be identical. Identical values can stand only once. ± gives the standard deviation of the averaged measurements. In all, about 2,900 compounds were measured (“IRF Lucia reporter activity, fold change vs agonist alone”: median about 0.9, highest 2% from about 2.8 on). The list shows a part of the results.
# Tests used:
# RAW-Dual [1] = assay: IRF Lucia reporter activity, fold change vs agonist alone; cytotoxicity flag (confluency mask): not cytotoxic; higher = enhanced IRF activity
# How it was run: (§1)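 RAW-Dual macrophages (50,000 cells/well in DMEM, 384-well plates) received 50 nL of library stock by pin tool, then a PRR agonist 1 h later, and were kept at 37 °C, 5% CO2. After 20 hours, supernatant was read for IRF by QuantiLuc luminescence and for NF-κB by QuantiBlue absorbance at 620 nm. Reporter activity is fold change over agonist-alone wells. Cytotoxic wells had IncuCyte confluency below 70% of agonist controls in both mask sets.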
# RAW-Dual [2] = assay: IRF Lucia reporter activity, fold change vs agonist alone; higher = enhanced IRF activity; conditions: agonist: MPLA (TLR4) […]
# How it was run: as §1
# RAW-Dual [3] = assay: IRF Lucia reporter activity, fold change vs agonist alone; cytotoxicity flag (confluency mask): cytotoxic (confluency <70% of control); higher = enhanced IRF activity
# How it was run: as §1
# [4] = agonist: 3'3'-cGAMP (STING) 10 ug/mL
# [5] = library stock concentration (final ~1000-fold dilution): 10 mM, cytotoxicity flag (confluency mask): not cytotoxic
# [6] = library stock concentration (final ~1000-fold dilution): 10 mM, cytotoxicity flag (confluency mask): cytotoxic (confluency <70% of control)
smiles,measurement,setting,value
COC(=O)C1=C(C)NC(C)=C(C(=O)OCCN2CCN(C(c3ccccc3)c3ccccc3)CC2)C1c1cccc([N+](=O)[O-])c1 (centres undefined) (library stock concentration (final ~1000-fold dilution): 10 mM),IRF Lucia reporter activity,RAW-Dual [1]; [4],0.122
same,IRF Lucia reporter activity,RAW-Dual [1]; agonist: LPS (TLR4) 0.1 ug/mL,0.911
COC(=O)C1=C(C)NC(C)=C(C(=O)OCCN2CCN(C(c3ccccc3)c3ccccc3)CC2)C1c1cccc([N+](=O)[O-])c1 (centres undefined),IRF Lucia reporter activity,RAW-Dual [2]; [5],0.829
CCOc1nc2cccc(C(=O)OC(C)OC(=O)OC3CCCCC3)c2n1Cc1ccc(-c2ccccc2-c2nnn[nH]2)cc1 (centres undefined),IRF Lucia reporter activity,RAW-Dual [2]; [6],0.792
CCOc1nc2cccc(C(=O)OC(C)OC(=O)OC3CCCCC3)c2n1Cc1ccc(-c2ccccc2-c2nnn[nH]2)cc1 (centres undefined) (library stock concentration (final ~1000-fold dilution): 10 mM),IRF Lucia reporter activity,RAW-Dual [3]; [4],0.498
same,IRF Lucia reporter activity,RAW-Dual [3]; agonist: LPS (TLR4) 0.1 ug/mL,1.13
Cn1cc(CC(N)C(=O)O)c2ccccc21 (centres undefined) (library stock concentration (final ~1000-fold dilution): 2 mM),IRF Lucia reporter activity,RAW-Dual [1]; [4],0.96
same,IRF Lucia reporter activity,RAW-Dual [1]; agonist: LPS (TLR4) 0.1 ug/mL,0.943
Cc1ccccc1-c1cc(N2CCN(C)CC2)ncc1N(C)C(=O)C(C)(C)c1cc(C(F)(F)F)cc(C(F)(F)F)c1,IRF Lucia reporter activity,"RAW-Dual [2]; library stock concentration (final ~1000-fold dilution): 2 mM, cytotoxicity flag (confluency mask): not cytotoxic",1.2
Cc1ccccc1-c1cc(N2CCN(C)CC2)ncc1N(C)C(=O)C(C)(C)c1cc(C(F)(F)F)cc(C(F)(F)F)c1 (library stock concentration (final ~1000-fold dilution): 2 mM),IRF Lucia reporter activity,RAW-Dual [1]; [4],0.804
same,IRF Lucia reporter activity,RAW-Dual [1]; agonist: LPS (TLR4) 0.1 ug/mL,1.14
O=C(OC1CN2CCC1CC2)N1CCc2ccccc2C1c1ccccc1 (centres undefined) (library stock concentration (final ~1000-fold dilution): 10 mM),IRF Lucia reporter activity,RAW-Dual [3]; [4],0.542
same,IRF Lucia reporter activity,RAW-Dual [3]; agonist: LPS (TLR4) 0.1 ug/mL,1.81
O=C(OC1CN2CCC1CC2)N1CCc2ccccc2C1c1ccccc1 (centres undefined),IRF Lucia reporter activity,RAW-Dual [2]; [6],1.48
CC(C(=O)O)c1ccc2c(c1)Cc1cccnc1O2 (centres undefined),IRF Lucia reporter activity,RAW-Dual [2]; [5],0.957
CC(C(=O)O)c1ccc2c(c1)Cc1cccnc1O2 (centres undefined) (library stock concentration (final ~1000-fold dilution): 10 mM),IRF Lucia reporter activity,RAW-Dual [1]; [4],1.06
same,IRF Lucia reporter activity,RAW-Dual [1]; agonist: LPS (TLR4) 0.1 ug/mL,0.902
CC(C)(C)C(=O)Oc1ccc(S(=O)(=O)Nc2ccccc2C(=O)NCC(=O)O)cc1,IRF Lucia reporter activity,RAW-Dual [2]; [5],1.07
CC(C)(C)C(=O)Oc1ccc(S(=O)(=O)Nc2ccccc2C(=O)NCC(=O)O)cc1 (library stock concentration (final ~1000-fold dilution): 10 mM),IRF Lucia reporter activity,RAW-Dual [1]; [4],1.1 and 1.19
same,IRF Lucia reporter activity,RAW-Dual [1]; agonist: LPS (TLR4) 0.1 ug/mL,1.16 and 1.32
O=C(N/N=C/c1cc(O)c(O)cc1O)c1cc2ccccc2cc1O (library stock concentration (final ~1000-fold dilution): 10 mM),IRF Lucia reporter activity,RAW-Dual [1]; [4],0.396
same,IRF Lucia reporter activity,RAW-Dual [1]; agonist: LPS (TLR4) 0.1 ug/mL,0.944
O=C(N/N=C/c1cc(O)c(O)cc1O)c1cc2ccccc2cc1O,IRF Lucia reporter activity,RAW-Dual [2]; [5],1.02
COc1cc(O)c2c(c1)oc(=O)c1c3cc(O)c(O)cc3oc21 (library stock concentration (final ~1000-fold dilution): 10 mM),IRF Lucia reporter activity,RAW-Dual [1]; [4],0.343
same,IRF Lucia reporter activity,RAW-Dual [1]; agonist: LPS (TLR4) 0.1 ug/mL,0.684
N=C(N)Nc1nc(CSCCC(=N)NS(N)(=O)=O)cs1,IRF Lucia reporter activity,RAW-Dual [2]; [5],0.972
N=C(N)Nc1nc(CSCCC(=N)NS(N)(=O)=O)cs1 (library stock concentration (final ~1000-fold dilution): 10 mM),IRF Lucia reporter activity,RAW-Dual [1]; [4],1.11
same,IRF Lucia reporter activity,RAW-Dual [1]; agonist: LPS (TLR4) 0.1 ug/mL,0.978
O=C(/C=C/c1ccc2ccccc2n1)c1ccncc1 (library stock concentration (final ~1000-fold dilution): 10 mM),IRF Lucia reporter activity,RAW-Dual [1]; [4],0.164
same,IRF Lucia reporter activity,RAW-Dual [1]; agonist: LPS (TLR4) 0.1 ug/mL,0.307
O=C(/C=C/c1ccc2ccccc2n1)c1ccncc1,IRF Lucia reporter activity,RAW-Dual [2]; [5],0.162
Cc1cc(C(N)=O)ccc1-n1c(CCC(=O)O)ccc1-c1ccc(-n2ccnc2)cc1 (library stock concentration (final ~1000-fold dilution): 10 mM),IRF Lucia reporter activity,RAW-Dual [1]; [4],0.983
same,IRF Lucia reporter activity,RAW-Dual [1]; agonist: LPS (TLR4) 0.1 ug/mL,1.08
N=C(N)NCCCCC1NC(=O)CCSSCC(C(N)=O)NC(=O)C2CCCN2C(=O)C(Cc2c[nH]c3ccccc23)NC(=O)C(CC(=O)O)NC(=O)CNC1=O (centres undefined) (library stock concentration (final ~1000-fold dilution): 10 mM water),IRF Lucia reporter activity,RAW-Dual [1]; [4],1.52
same,IRF Lucia reporter activity,RAW-Dual [1]; agonist: LPS (TLR4) 0.1 ug/mL,1
CCOC(=O)/C=C\C(=O)OCC,IRF Lucia reporter activity,RAW-Dual [2]; [5],1.34 ± 0.59
CCOC(=O)/C=C\C(=O)OCC (library stock concentration (final ~1000-fold dilution): 10 mM),IRF Lucia reporter activity,RAW-Dual [1]; [4],0.722 ± 0.28
same,IRF Lucia reporter activity,RAW-Dual [1]; agonist: LPS (TLR4) 0.1 ug/mL,1.09 ± 0.084
Cc1n[nH]c2ccc(-c3cncc(OCC(N)Cc4ccccc4)c3)cc12 (centres undefined),IRF Lucia reporter activity,RAW-Dual [2]; [5],1.15
Cc1n[nH]c2ccc(-c3cncc(OCC(N)Cc4ccccc4)c3)cc12 (centres undefined) (library stock concentration (final ~1000-fold dilution): 10 mM),IRF Lucia reporter activity,RAW-Dual [1]; [4],1.03
same,IRF Lucia reporter activity,RAW-Dual [1]; agonist: LPS (TLR4) 0.1 ug/mL,0.0165
O=C(/C=C/c1ccc(O)c(O)c1)O[C@@H](C(=O)O)[C@@H](OC(=O)/C=C/c1ccc(O)c(O)c1)C(=O)O (library stock concentration (final ~1000-fold dilution): 10 mM),IRF Lucia reporter activity,RAW-Dual [1]; [4],1.18
same,IRF Lucia reporter activity,RAW-Dual [1]; agonist: LPS (TLR4) 0.1 ug/mL,1.37
Cc1ccc(-c2csc(NC(=O)c3ccccc3)n2)c(C)c1,IRF Lucia reporter activity,RAW-Dual [2]; [5],0.893

# From the supplement of paper PMC10037445
